Out of some 410,000 compounds screened, about 5,000 (1.2%) were called active. The shares of active, inactive and inconclusive entries below differ from those in the screen. The call rests on the fitted dose curve; in most records, active means well fitted inhibition curve with a large enough effect; inconclusive means small, poorly fitted or top-dose-only effect; inactive means no such curve, though single readings can be large or run the other way. Potencies beside an inconclusive call are fits to weak or partial responses and may not hold up.
Experiment: qHTS for Inhibitors of TGF-b; further: nearly all actives have a fitted effect of over 65% in size
Details: HepG2 CAGA-GFP TGF-b/SMAD3 reporter, GFP fluorescence, 18 h, TGF-beta stimulated, 500 pg/mL final; series mostly up to 46.1 µM; activity, negative = inhibition: at the top concentration
How it was run: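 Inhibition of TGF-beta-driven CAGA-GFP reporter expression in HEPG2 cells is measured by cellular GFP fluorescence after 18 h stimulation with 500 pg/mL recombinant TGF-beta in 1% FBS medium at 37 degrees C.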
On the % scale 0 is the no-effect control and ±100 the full control effect; potency means the concentration at half of the fitted maximal effect; tags describe the fitted curve by direction and shape.

Row | Structure (SMILES) | Potency | activity, negative = inhibition
1 | Cc1cc(C)n(-c2nc(N(C)C)nc(N(C)C)n2)n1 | inactive | 
2 | O=C(NCc1ccc(Cl)cc1)C1CCCN(C(=O)c2ccc(Cl)cc2)C1 (stereo not drawn) | inconclusive: 35.5 µM [inhibitor, single point] | 
3 | Cc1ccc2[nH]c(=O)c3cc(C(=O)NCCc4ccc(Cl)cc4)sc3c2c1 |  | inactive: 0.197%
4 | O=C(c1ccc2c(c1)N(Cc1cccc(Cl)c1)C(=O)c1ccccc1S2)N1CCOCC1 | inconclusive: 5.62 µM [inhibitor, single point] | 
5 | O=C1OC(Nc2nc(-c3ccc(F)cc3)cs2)c2ccccc21 (stereo not drawn) | active: 11.2 µM | 
6 | Nc1sc(-c2ccccc2)cc1-c1n[nH]c(=S)n1C1CCCCC1 | inconclusive: 17.8 µM [inhibitor, single point] | 
7 | CN1N=C(C(=O)N=c2sc3ccccc3n2C)CCC1=O |  | inactive: -5.02%
8 | O=S(=O)(N/N=C/c1ccc(N2CCOCC2)cc1)c1ccc(Br)cc1 | inconclusive: 35.5 µM [inhibitor, single point] | 
9 | CCn1c2ccccc2c2cc(CN3CCN(Cc4ccccc4C)CC3)ccc21 | inconclusive: 35.5 µM [inhibitor, single point] | 
10 | O=C(Cc1c[nH]c2ccccc12)NCC(=O)Nc1ccc(F)c(F)c1F |  | inactive: 8.14%
11 | COc1cc(NS(=O)(=O)c2ccc(N/C=C\C(=O)c3ccc(OC)c(OC)c3)cc2)nc(OC)n1 |  | inactive: 25.4%
12 | COc1ccccc1C(=O)Nc1ccc(OCc2cc(=O)n3cc(C)sc3n2)cc1 | inconclusive: 22.4 µM [inhibitor, partial curve, poor fit] | 
13 | S=C(NCc1cccs1)Nc1ccccc1Cl |  | inactive: -16.6%
14 | COc1ccc(C)cc1NC(=O)c1ccc2c(c1)nnn2C1CCCC1 | inconclusive: 20 µM [inhibitor, single point] | 
15 | COc1ccc(-c2nc3c(C)cc(Br)cn3c2Cc2cccc(Cl)c2)cc1OC | inconclusive: 14.1 µM [inhibitor, single point] | 
16 | COc1cccc(N(CC(=O)Nc2ccccc2C(=O)N2CCCC2)S(C)(=O)=O)c1 | inconclusive: 5.62 µM [inhibitor, single point] | 
17 | C=CCc1cc(S(=O)(=O)c2ccc(O)c(CC=C)c2)ccc1O | inconclusive: 31.6 µM [inhibitor, single point] | 
18 | CN(c1ccccc1)S(=O)(=O)c1ccc(NC(=O)CC(=O)c2ccccc2)cc1 | inconclusive: 35.5 µM [inhibitor, single point] | 
19 | Cc1noc(C)c1COC(=O)c1ccccc1Sc1ccccc1C#N |  | inactive: -1.6%
20 | CN(CC(=O)Nc1ccc(Cl)c(C(F)(F)F)c1)C(=O)c1cccnc1Sc1ccccc1 | inconclusive: 20 µM [inhibitor, partial curve, poor fit] | 
21 | CC(C)(C)Cc1c(-c2cccc(Br)c2)nc2ccc(Br)cn12 |  | inactive: -6.37%
22 | COc1cccc(NC(=O)c2nc(S(C)(=O)=O)ncc2Cl)c1 | active: 15.8 µM | 

Row | Structure (SMILES) | Potency | activity, negative = inhibition
23 | Cn1c(COc2ccc(Cl)cc2)nnc1SCc1ncc(-c2ccccc2)o1 | inconclusive: 17.8 µM [inhibitor, single point] | 
24 | Cc1ccc(Cn2cc(C(=O)c3ccc(C)cc3)c(=O)c3ccc(C)nc32)cc1 | inconclusive: 11.2 µM [inhibitor, partial curve, poor fit] | 
25 | O=C(Nc1ccccc1Cl)C1CCN(Cc2cnn(-c3ccccc3)c2-n2cccc2)CC1 | inconclusive: 15.8 µM [inhibitor, single point] | 
26 | NNC(=S)Nc1ccc(C(F)(F)F)cc1Cl | inconclusive: 35.5 µM [inhibitor, single point] | 
27 | COc1cccc(-c2nnc(NC(=O)c3ccc(Cl)s3)o2)c1 | inconclusive: 28.2 µM [inhibitor, single point] | 
28 | C=CCN(C(=O)CN1CCOCC1)c1nc(C)c(-c2ccccc2)s1 | inconclusive: 0.562 µM [inhibitor, full curve, poor fit] | 
29 | O=C(/C=C\c1ccccc1OC(=O)c1ccccc1F)c1cc2ccccc2o1 | active: 14.1 µM | 
30 | COc1ccc(C)cc1NS(=O)(=O)c1ccc(NC(=O)CN(c2cc([N+](=O)[O-])ccc2C)S(C)(=O)=O)cc1 | inconclusive: 22.4 µM [inhibitor, single point] | 
31 | COC(=O)COc1cc(Br)c(/C=C2/SC(=O)N(CC(=O)N3CCCC3)C2=O)cc1OC | inconclusive: 35.5 µM [inhibitor, single point] | 
32 | COc1cc(C(=O)NCC(=O)N/N=C/c2ccc(OC(=O)c3ccco3)cc2)cc(OC)c1OC | inconclusive: 1.26 µM [inhibitor, full curve, poor fit] | 
33 | COc1cccc(N2C(=O)C(CC(=O)Nc3ccc(F)cc3)N(CCC3=CCCCC3)C2=O)c1 (stereo not drawn) | inconclusive: 35.5 µM [inhibitor, single point] | 
34 | Cc1sc2c(c1C)CN(CCN1CCOCC1)CN2C(=O)c1ccccc1 |  | inactive: -6.29%
35 | COc1cccc(NC(=O)CN2C(=O)COc3ccc(S(=O)(=O)N4CCCCCC4)cc32)c1 | inconclusive: 0.708 µM [inhibitor, full curve, poor fit] | 
36 | O=C(Cc1cccs1)Nc1ccc(S(=O)(=O)N2CCCCC2)cc1 | inconclusive: 25.1 µM [inhibitor, single point] | 
37 | CCc1ccc(NC(=O)CC2C(=O)N(c3ccc(C)cc3)C(=O)N2CCc2ccncc2)cc1 (stereo not drawn) | inconclusive: 1 µM [inhibitor, full curve, poor fit] | 
38 | COc1ccc(-c2cc3ccccc3oc2=O)cc1NC(=S)NC(=O)c1ccc2c(c1)OCCO2 |  | inactive: -1.87%
39 | CCOc1ccc(NC(=O)Cn2cc(C(=O)c3ccc(OCC)cc3)c(=O)c3cc4c(cc32)OCCO4)cc1 |  | inactive: -8.3%
40 | CCC(C(=O)NCCC1=CCCCC1)n1nc(C)c2c(C)n(-c3ccccc3)nc2c1=O (stereo not drawn) | inconclusive: 25.1 µM [inhibitor, single point] | 
41 | O=C(NCc1cccc(F)c1)c1cccc2c1C(=O)c1ccc(N3CCOCC3)cc1S2(=O)=O |  | inactive: -11.7%
42 | COc1ccccc1Cn1c(CNS(=O)(=O)c2ccc(CC(C)C)cc2)nc2cccnc21 | active: 12.6 µM | 
43 | Cc1ccccc1/C=C\c1nc2ccccc2c(=O)n1Cc1ccccc1 |  | inactive: 0%

From PubChem BioAssay AID588855 (National Center for Advancing Translational Sciences (NCATS), 2011)
